Source: PubChem BioAssay (NCATS)
Inconclusive means that the source gave no clear call. Such entries were picked first, then a sample of the others. The source made the active and inactive calls. Calls come from the whole dose curve; as a rule, active = well fitted activation curve with a large enough effect in the signal ratio, with a control signal flat (not every such curve was filed as active); inconclusive = small, poorly fitted or top-dose-only effect, or effect the other way, or a change in a side signal; inactive = flat fitted curve, though single readings scatter; the % refers to the signal ratio.

assay: qHTS Assay for Identification of Small Molecule Agonists for Hypoxia Response Element Signaling Pathway (AID 914); settings: ME-180 (cervical carcinoma) HRE-bla reporter, beta-lactamase ratio, CoCl2, 17 h; activation: active compounds read high; for activation: top concentration of the series differs between compounds; % of control where 0% means no effect
Method in brief: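 In Opti-MEM containing 0.5% dialyzed FBS and 10 mM HEPES, ME-180 HRE-bla cells received a compound titration and EC50 CoCl2. They were incubated 17 hours, then CCF4-loaded 2.5 hours at room temperature before ratio reading.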
Potency is the fitted concentration of half-maximal effect.

| SMILES | activation | Potency |
| --- | --- | --- |
| CCOc1ccc(NC(=O)c2nn(C)cc2Br)cc1 | inactive: 5.55% | – |
| O=C(C(c1ccccc1)N1CCOCC1)N1CCOCC1 (centres undefined) | inconclusive: 28.9% | – |
| C=CCn1c(N)c(C(=O)OC(C)(C)C)c2nc3ccccc3nc21 | – | active: 10 µM |
| Cc1nc2c(o1)CCc1ccccc1C2N1CCN(C)CC1 (centres undefined) | inconclusive: 30.3% | – |
